B1: tRNA (parent)
chain: CUCUCGGUAGCCAAGUUGGUUUAAGGCGCAAGACUUUAAUUUAUCACUACGAAAUCUUGAGAUCGGGCGUUCGACUCGCCCCCGGGAGAUUUUUUCCUCGAGCAA

Variants at the background level are over-represented here.

Variants of B1 are the subject of this data set. The data set is described as follows: nonsense suppression (GFP-seq) (ratio to wild type); higher = more function; SUP4oc tRNA, yeast GFP reporter sort-seq. The gist of the method:
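Raffinose/galactose medium with 80 mg/L adenine was used to grow yeast carrying genome-integrated tRNA variants (~3% random-mutation library), RFP, and a galactose-driven GFP ochre reporter. Cells went into GFP/RFP bins, which were Illumina-sequenced, and variants with ≥100 reads and ≥30 cells were scored. Nonsense suppression (GFPSEQ) is the per-bin median GFP/RFP weighted by estimated cell share and expressed relative to the unmutated parent tRNA.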
Consider CUCUCGGUAGCCAAGUUGGUUUAACGCGCAAGACAUUAAUUUAUCACUACGAAAUCUUGAGAUCGGGCGUUCGACUCGCCCCCGGGAGAUUUUUUCCUCGAGCAA [G25C U35A], for which the nonsense suppression was at most 0.026.
CUCUCGGUAGCCAAGUUGGUUUACGGCGCAAGACUUUAAUUUAUCACUACGAAGUCUUGAGAUCGGGCGUUCGACUCGCCCCCGGGAGAUUUUUUCCUCGAGCAA [A24C A54G]: the nonsense suppression is 0.0609.
In the case of CUCUCGGUAGCCAAGUUGGUUUAAGGCGCAAGACUUUAAUUUAUCACUACGAAAUCUUGAGUUCGGGCGUUCGACUCGCGCCCGGGAGAUUUUUUCCUCGAGCAA [A62U C80G], the nonsense suppression is at most 0.026.
In the case of CUCUCGGUAGCCAAGUUGGUUUAAGGCGCAAGACUUUAAUUUAUCACUACGAAAUCUUGACAUCGGGCCUUCGACUCGCCCCCGGGAGAUUUUUUCCUCGAGCAA [G61C G69C], the nonsense suppression is at most 0.026.
For CUUUCGGUAGCCAAGUUGGUUUUAGGCGCAAGACUUUAAUUUAUCACUACGAAAUCUUGAGAUCGGGCGUUCGACUCGCCACCGGGAGAUUUUUUCCUCGAGCAA [C3U A23U C81A] the value was at most 0.026.
With CACACGGUAGCCAAGUUGGUUUAAGGCGCAAGACUUUAAUUUAUCACUACGAAAUCUUGAGAUCGGGUGUUCGACUAGCCCCCGGGAGAUUUUUUCCUCGAGCAA [U2A U4A C68U C77A], the nonsense suppression was at most 0.026.
In the case of CUCUCGGUAGCCAAGUUGGUUUAAGGCGCAAGACUUUAAUUUAUCACUACGAAAACUGGAGAUCGGGCGAUCGACUCGCCCCCGGGAGCUUUUUUCCUCGAGCAA [U55A U58G U70A A89C], the nonsense suppression is at most 0.026.
In the case of CUCUCGGUAGCCAAGUUGGUUUAAGGCGCAAGACUUUAAUUUAUCACUACGAAAUCUUGAGAUCGCGCGUUCGACUCGCCCUCGGGAGAUUUUUUCCUCGAGCAA [G66C C82U], the nonsense suppression is at most 0.026.
As to CUCUCGGUAGCCCAGUUGGUUUAAGGCGCAAGACUUUAAUUUAUCACUACGAAAUCUUGAGAUCGGGCGUUCGACUCGCCCCCGGGAGAUUUUUUCCUCGAGCAA [A13C], the nonsense suppression was determined as 1.13.
Consider AUCUCGGUAGCCAAGUUGGUUUAAGGCGCAAGACUUUAAUUUAUCACUACGAAAUCUUGAGAUCGGGCGUUCGACUCGCCCCAGGGAGAUUUUUUCCUCGAGCAA [C1A C83A], for which the nonsense suppression was at most 0.026.
For CUCUCAGUUGCCAAGUUGGUUUAAGGCGCAAGACUUUAAUUUAUCACUACGAAAUCUUGAGAUCGGGCGUUCGACUCGCCCCCGGGGGAUUUUUUCCUCGAGCAA [G6A A9U A87G] the value was at most 0.026; for CUCUCGGUGGCCAAGUUUGUUUAAGGCGCAAGACUUUAAUUUAUCACUACGAAAUCUUGAGAUCGGGCGUUCGACUCGCCCCCGGGAAAUUUUUUCCUCGAGCAA [A9G G18U G88A], at most 0.026.
For the variant CUCUCGGUAGCCAAGUUGGUUUAAGGCGGAAGACUUUAAUUUAUCACUACGAAAUCUUGAGAUCGGGCGUUCGACUCGCCCACGGGAGAUUUUUUCCUCGAGCAA [C29G C82A], the nonsense suppression was at most 0.026.
Turning to CUCUCGGUAGCCAAGUUGGUUUAAGGCGCAAGACAUUAAUUUAUCACUACGAAAUCUUGAGAUCGGGCGUUCGGCUCCCCCCCGGGAGAUUUUUUCCUCGAGCAA [U35A A74G G78C], the nonsense suppression is at most 0.026.
Turning to CUCUCGUUAGCCAAGUUGGUUUACGGCGCAAGACUUUAAUUUAUCACUACGAAAUCUUGAGAUCGGACGUUCGACUCGCCCGCGGGAGAUUUUUUCCUCGAGCAA [G7U A24C G67A C82G], the nonsense suppression was at most 0.026.
For CUCUCGGUAGCCAAGGUGGUUUAUGGCGCAAGACUUUAAUUUAUCACUACGAAAUCUUGAGAUCGUGCGUUCGACUCGCCCCCGGGAAAUUUUUUCCUCGAGCAA [U16G A24U G66U G88A], the nonsense suppression was at most 0.026.
As for CUCUCGGUAGCCGAGUUGGUUUAAGGCGCAAGACUUUAAUUUAUCACUACGAAAUCUUGAGAUCGGGCGUUCGACUCUCCCCCGGGAGAUUUUUUCCUCGAGCAA [A13G G78U], the nonsense suppression is at most 0.026.
With CUCUCGGUAGACAAGCUGGUUUAAGGCGCAAGACUUUAAUUUAUCACUACGAAAUCUUGAGAUCGGGCGUUCGACUCGCCCCCGGGAGGUUUUUUCCUCGAGCAA [C11A U16C A89G] the figure was at most 0.026; with CUCUCGGUAGCCAAGUUGGUUUAAGGCGCAAGACUUUAAUUUAUCACUACGAAAUCUUGUGAUCGCGCGUUCGACUCGCCCCCGGGAGAUUUUUUCCUCGAGCAA [A60U G66C], at most 0.026.
CUCUCGGUAGCCAAGUUGGCUGAAGGCGCCAGACUUUAAUUUAUCACUACGAAGUAUUGACAUCGGGCGUUCGACUCGCCCCCGAGAGAUUUUUUCCUCGAGCAA [U20C U22G A30C A54G C56A G61C G85A]: the nonsense suppression was at most 0.026.
Turning to CUCUCGGUGGCCAAGUUGGUUUAAGGCGCAAGACUUUAAUUUAUCACUACGAAAUCUUGUGAUCGGGCGUUCGACUCGCCCCCGGGAAAUUUUUUCCUCGAGCAA [A9G A60U G88A], the nonsense suppression was at most 0.026.
In the case of CUCUCGGUAGCCAAGUUGGUUUAAGGCGCAAGACUUUAAUUUAUCACUACGAAAUCUUGAGUUCGGGCGUUCGACUCGCCCCCGGGUCAUUUUUUCCUCGAGCAA [A62U A87U G88C], the nonsense suppression is at most 0.026.
With CUCUCGGUAGUCAAGUUGGUUUAAGGCGCAAGAUUUUAAUUUAUCACUACGAAAUCUUGAGAUCGGGCGUUCGACUCGCCCCCGGGAUAUUUUUUCCUCGAGCAA [C11U C34U G88U] the figure was at most 0.026.
As to CUCUGGGUAGCCAAGUUGGUUUAAGGGGCAAGACUUUAAUUUAUCACUACGAAAUCUUGAGAUCGGGCGUUCGAAUCGCCCCCGGGAGAUUUUUUCCUCGAGCAA [C5G C27G C75A], the nonsense suppression was at most 0.026.
For the variant CUCUCGGUAGCCAAGUUGGUUUAAGGCGCAAGUCUUUAAUUUAUCACUACGAAAUCUUGAGACCGGGCGUGCGACUUGCCCCCGGGAGAUUUUUUCCUCGAGCAA [A33U U63C U71G C77U], the nonsense suppression was at most 0.026.
On to CUCUCGGUAGCCAAGUUGGUUUAAGGCGCAAGUCUUUAAUUUAUCACUACGAAAUCCUGAGAUCGGGCGUUGGACUCGCCCCCGGGAGCUUUUUUCCUCGAGCAA [A33U U57C C72G A89C], for which the nonsense suppression is at most 0.026.
For AUCUCGGUAGCCAAGUUGGUUUAAGGCGCAAGACUUUAAUUUAUCACUACGAAAUCUUGAGAUCGGCCGUUCGACUCGCCCCCGGGAGAUUUUUUCCUCGAGCAA [C1A G67C] the value was at most 0.026.
